Here are results for 60 molecules from US20180015075A1, “METHODS AND COMPOSITIONS FOR TREATMENT OF VENOUS MALFORMATION” (Children's Hospital Medical Center, priority 2016, published 2018).

Where a name gives a salt, the structure may show the parent alone. Some results are limits rather than exact numbers.

The test system of the first assay is HUVEC (non-transfected).
Experiment: not given
Conditions: 20 uM.
Turning to `N.N.O=C([O-])C1(C(=O)[O-])CCC1.[Pt+2]` [Carboplatin], the “Average proliferation Inhibition rate (%) HUVEC” value worked out at 3.77%.
For the molecule `Cl.Nc1ccn([C@@H]2O[C@H](CO)[C@@H](O)[C@@H]2O)c(=O)n1` [Cytarabine hxdrochloride], the “Average proliferation Inhibition rate (%) HUVEC” value worked out at 42.88%.
With `CNNCc1ccc(C(=O)NC(C)C)cc1.Cl` [Procarbazine hxdrochloride], the “Average proliferation Inhibition rate (%) HUVEC” value was 0.84%.

The assay is the same for the next values; noted with them: 20 µM.
In the case of `Cl.N[C@@H](Cc1ccc(N(CCCl)CCCl)cc1)C(=O)O` [Melphalan hxdrochloride], the “Average proliferation Inhibition rate (%) HUVEC” value came to 11.09%.
Take `O=C1[O][Pt]2([NH][C@@H]3CCCC[C@H]3[NH]2)[O]C1=O` [Oxaliplatin]: the “Average proliferation Inhibition rate (%) HUVEC” value is reported as 25.39%.

The next assay deals with HUVEC (non-transfected). Description: cells. The settings on record: Homo sapiens, read-out: Average proliferation Inhibition rate (%) HUVEC.
`Nc1ccn([C@@H]2O[C@H](CO)[C@@H](O)C2(F)F)c(=O)n1` [Gemcitabine hydrochloride]: the inhibition at 20 µM was found to be 50.7%.
Consider `NC(=O)NO` [Hydroxyurea], for which the inhibition at 20 µM was -2.21%.
The same measure, in the same setting: for `C=CC(=O)N1CCC[C@@H](n2nc(-c3ccc(Oc4ccccc4)cc3)c3c(N)ncnc32)C1` [Ibrutinib] the value was 31.6%; for `CC(=O)[C@]1(O)Cc2c(O)c3c(c(O)c2[C@@H](O[C@H]2C[C@H](N)[C@H](O)[C@H](C)O2)C1)C(=O)c1ccccc1C3=O` [Idarubicin hydrochloride], 1.79%; for `CC[C@H](Nc1ncnc2[nH]cnc12)c1nc2cccc(F)c2c(=O)n1-c1ccccc1` [Idelalisib], 23.8%.
In the case of `O=P1(NCCCl)OCCCN1CCCl` (stereo not shown) [Ifosfamide], the inhibition at 20 µM is -3.81%.
Regarding `CC(C)Cn1cnc2c(N)nc3ccccc3c21` [Imiquimod], the inhibition at 20 µM was -0.75%.
`CCc1c2c(nc3ccc(OC(=O)N4CCC(N5CCCCC5)CC4)cc13)-c1cc3c(c(=O)n1C2)COC(=O)[C@]3(O)CC` [Irinotecan hydrochloride]: the inhibition at 20 µM was determined as 44%.
In the case of `C/C(=C\c1csc(C)n1)[C@@H]1C[C@@H]2O[C@]2(C)CCC[C@H](C)[C@H](O)[C@@H](C)C(=O)C(C)(C)[C@@H](O)CC(=O)N1` [Ixabepilone], the inhibition at 20 µM stood at 74.3%.
On the same count and under the same terms, under `CS(=O)(=O)CCNCc1ccc(-c2ccc3ncnc(Nc4ccc(OCc5cccc(F)c5)c(Cl)c4)c3c2)o1` [Lapatinib] stands -2.48%; under `Nc1cccc2c1CN(C1CCC(=O)NC1=O)C2=O` (stereo not shown) [Lenalidomide], 1.27%; under `N#Cc1ccc(C(c2ccc(C#N)cc2)n2cncn2)cc1` [Letrozole], 4.31%.
Turning to `O=NN(CCCl)C(=O)NC1CCCCC1` [Lomustine], the inhibition at 20 µM was determined as 12.6%.
With `CC(=O)O[C@]1(C(C)=O)CC[C@H]2[C@@H]3C=C(C)C4=CC(=O)CC[C@]4(C)[C@H]3CC[C@@]21C` [Megestrol-acetate], the inhibition at 20 µM stood at 1.49%.
Still for that read-out and setting: for `S=c1nc[nH]c2nc[nH]c12` [Mercaptopurine] the value was 6.1%.
Same read-out and setting: under `CN(Cc1cnc2nc(N)nc(N)c2n1)c1ccc(C(=O)N[C@@H](CCC(=O)O)C(=O)O)cc1` [Methotrexate] stands -3.4%; under `COc1c2occc2cc2ccc(=O)oc12` [Methoxsalen], -1.93%.
As for `CO[C@@]12[C@H](COC(N)=O)C3=C(C(=O)C(C)=C(N)C3=O)N1C[C@@H]1N[C@@H]12` [Mitomycin], the inhibition at 20 µM worked out at 69.5%.
In the case of `Clc1ccc(C(c2ccccc2Cl)C(Cl)Cl)cc1` (stereo not shown) [Mitotane], the inhibition at 20 µM is 1.39%.
Turning to `O=C1c2c(O)ccc(O)c2C(=O)c2c(NCCNCCO)ccc(NCCNCCO)c21` [Mitoxantrone], the inhibition at 20 µM turned out to be 80.3%.
Take `COc1nc(N)nc2c1ncn2[C@@H]1O[C@H](CO)[C@@H](O)[C@@H]1O` [Nelarabine]: the inhibition at 20 µM was 4.75%.
`O=C(c1cc(Cc2n[nH]c(=O)c3ccccc23)ccc1F)N1CCN(C(=O)C2CC2)CC1` [Olaparib]: the inhibition at 20 µM worked out at 16.8%.
For the molecule `COC(=O)C[C@](O)(CCCC(C)(C)O)C(=O)O[C@@H]1C(OC)=C[C@]23CCCN2CCc2cc4c(cc2[C@H]13)OCO4` [Omacetaxine-mepesuccinate], the inhibition at 20 µM is 79.8%.
`CC(=O)O[C@H]1C(=O)[C@@]2(C)[C@H]([C@H](OC(=O)c3ccccc3)[C@]3(O)C[C@H](OC(=O)[C@H](O)[C@@H](NC(=O)c4ccccc4)c4ccccc4)C(C)=C1C3(C)C)[C@]1(OC(C)=O)CO[C@@H]1C[C@@H]2O` [Paclitaxel]: the inhibition at 20 µM worked out at 48%.
Same read-out and setting: under `Cc1ccc(Nc2nccc(N(C)c3ccc4c(C)n(C)nc4c3)n2)cc1S(N)(=O)=O` [Pazopanib hydrochloride] stands 4.01%; under `Nc1nc2[nH]cc(CCc3ccc(C(=O)N[C@@H](CCC(=O)O)C(=O)O)cc3)c2c(=O)[nH]1` [Pemetrexed disodium salt], 2.48%.
As for `OC[C@H]1O[C@@H](n2cnc3c2NC=NC[C@H]3O)C[C@@H]1O` [Pentostatin], the inhibition at 20 µM was -3.07%.
As for `O=C(CCBr)N1CCN(C(=O)CCBr)CC1` [Pipobroman], the inhibition at 20 µM turned out to be 15.8%.
On to `Nc1cccc2c1C(=O)N(C1CCC(=O)NC1=O)C2=O` (stereo not shown) [Pomalidomide], for which the inhibition at 20 µM was 5.37%.
The same measure, in the same setting: for `O=C(c1ccc(OCCN2CCCCC2)cc1)c1c(-c2ccc(O)cc2)sc2cc(O)ccc12` [Raloxifene] the value was 9.41%; for `CNC(=O)c1cc(Oc2ccc(NC(=O)Nc3ccc(Cl)c(C(F)(F)F)c3)c(F)c2)ccn1` [Regorafenib], 56.7%; for `C/C=C1\NC(=O)[C@H]2CSSCC/C=C/[C@H](CC(=O)N[C@H](C(C)C)C(=O)N2)OC(=O)[C@H](C(C)C)NC1=O` [Romidepsin], 50.9%.
Regarding `CO[C@H]1C[C@@H]2CC[C@@H](C)[C@@](O)(O2)C(=O)C(=O)N2CCCC[C@H]2C(=O)O[C@H]([C@H](C)C[C@@H]2CC[C@@H](O)[C@H](OC)C2)CC(=O)[C@H](C)/C=C(\C)[C@@H](O)[C@@H](OC)C(=O)[C@H](C)C[C@H](C)/C=C/C=C/C=C/1C` [Sirolimus, Rapamycin], the inhibition at 20 µM is 43.1%.
Regarding `CNC(=O)c1cc(Oc2ccc(NC(=O)Nc3ccc(Cl)c(C(F)(F)F)c3)cc2)ccn1` [Sorafenib], the inhibition at 20 µM was found to be 13.2%.
With `CN(N=O)C(=O)N[C@@H](C=O)[C@@H](O)[C@H](O)[C@H](O)CO` [Streptozocin], the inhibition at 20 µM is -5.23%.
On the same count and under the same terms, under `CCN(CC)CCNC(=O)c1c(C)[nH]c(/C=C2\C(=O)Nc3ccc(F)cc32)c1C` [Sunitinib] stands 34.9%.
`CC/C(=C(\c1ccccc1)c1ccc(OCCN(C)C)cc1)c1ccccc1` [Tamoxifen citrate]: the inhibition at 20 µM turned out to be 24.3%.
For `Cn1nnc2c(C(N)=O)ncn2c1=O` [Temozolomide], the inhibition at 20 µM came out at 3.01%.
Same read-out and setting: for `CO[C@H]1C[C@@H]2CC[C@@H](C)[C@@](O)(O2)C(=O)C(=O)N2CCCC[C@H]2C(=O)O[C@H]([C@H](C)C[C@@H]2CC[C@@H](OC(=O)C(C)(CO)CO)[C@H](OC)C2)CC(=O)[C@H](C)/C=C(\C)[C@@H](O)[C@@H](OC)C(=O)[C@H](C)C[C@H](C)/C=C/C=C/C=C/1C` [Temsirolimus, 42-[3-Hydroxy-2-(hydroxymethyl)-2-methylpropanoate]-rapamycin] the value was 41.5%; for `COc1cc([C@@H]2c3cc4c(cc3[C@@H](O[C@@H]3O[C@@H]5CO[C@@H](c6cccs6)O[C@H]5[C@H](O)[C@H]3O)[C@H]3COC(=O)[C@H]23)OCO4)cc(OC)c1O` [Teniposide], 60%.
Same read-out and setting: for `O=C1CCC(N2C(=O)c3ccccc3C2=O)C(=O)N1` (stereo not shown) [Thalidomide] the value was -1.6%; for `Nc1nc2nc[nH]c2c(=S)[nH]1` [Thioguanine], 13.8%.
On the same count and under the same terms, for `S=P(N1CC1)(N1CC1)N1CC1` [Thiotepa] the value was 21.6%; for `CC[C@@]1(O)C(=O)OCc2c1cc1n(c2=O)Cc2cc3c(CN(C)C)c(O)ccc3nc2-1` [Topotecan hydrochloride], 77.5%.
As to `CC(=O)Nc1cccc(-n2c(=O)n(C3CC3)c(=O)c3c(Nc4ccc(I)cc4F)n(C)c(=O)c(C)c32)c1` [Trametinib], the inhibition at 20 µM stood at 34.7%.
With `CC1=C(/C=C/C(C)=C/C=C/C(C)=C/C(=O)O)C(C)(C)CCC1` [Tretinoin], the inhibition at 20 µM was -3.57%.
Same read-out and setting: under `C1CN1c1nc(N2CC2)nc(N2CC2)n1` [Triethylenemelamine] stands 46.1%; under `CCCCC(=O)OCC(=O)[C@]1(O)Cc2c(O)c3c(c(O)c2[C@@H](O[C@H]2C[C@H](NC(=O)C(F)(F)F)[C@H](O)[C@H](C)O2)C1)C(=O)c1c(OC)cccc1C3=O` [Valrubicin], -4.92%; under `COc1cc2c(Nc3ccc(Br)cc3F)ncnc2cc1OCC1CCN(C)CC1` [Vandetanib], 57.8%.
Still for that read-out and setting: for `CCCS(=O)(=O)Nc1ccc(F)c(C(=O)c2c[nH]c3ncc(-c4ccc(Cl)cc4)cc23)c1F` [Vemurafenib] the value was -8.56%.
For the molecule `CC[C@]1(O)C[C@@H]2CN(CCc3c([nH]c4ccccc34)[C@@](C(=O)OC)(c3cc4c(cc3OC)N(C)[C@H]3[C@@](O)(C(=O)OC)[C@H](OC(C)=O)[C@]5(CC)C=CCN6CC[C@]43[C@@H]65)C2)C1` [Vinblastine sulfate], the inhibition at 20 µM is 53.8%.
With `CC[C@]1(O)C[C@H]2CN(CCc3c([nH]c4ccccc34)[C@@](C(=O)OC)(c3cc4c(cc3OC)N(C=O)[C@H]3[C@@](O)(C(=O)OC)[C@H](OC(C)=O)[C@]5(CC)C=CCN6CC[C@]43[C@@H]65)C2)C1` [Vincristine sulfate], the inhibition at 20 µM worked out at 49.8%.
With `CCC1=C[C@@H]2CN(C1)Cc1c([nH]c3ccccc13)[C@@](C(=O)OC)(c1cc3c(cc1OC)N(C)[C@H]1[C@@](O)(C(=O)OC)[C@H](OC(C)=O)[C@]4(CC)C=CCN5CC[C@]31[C@@H]54)C2` [Vinorelbine tartrate], the inhibition at 20 µM worked out at 51.6%.
Consider `CS(=O)(=O)c1ccc(C(=O)Nc2ccc(Cl)c(-c3ccccn3)c2)c(Cl)c1` [Vismodegib], for which the inhibition at 20 µM was -1.48%.
In the case of `O=P(O)(O)C(O)(Cn1ccnc1)P(=O)(O)O` [Zoledronic acid], the inhibition at 20 µM is -8.23%.

Staying with this assay, now noted: Homo sapiens, read-out: IC50 HUVEC.
With `CO[C@H]1C[C@@H]2CC[C@@H](C)[C@@](O)(O2)C(=O)C(=O)N2CCCC[C@H]2C(=O)O[C@H]([C@H](C)C[C@@H]2CC[C@@H](O)[C@H](OC)C2)CC(=O)[C@H](C)/C=C(\C)[C@@H](O)[C@@H](OC)C(=O)[C@H](C)C[C@H](C)/C=C/C=C/C=C/1C` [Sirolimus, Rapamycin], the IC50 was less than 0.03 µM.
On to `CNC(=O)c1cc(Oc2ccc(NC(=O)Nc3ccc(Cl)c(C(F)(F)F)c3)cc2)ccn1` [Sorafenib], for which the IC50 is 6.84 ± 2.23 µM.
For the molecule `CO[C@H]1C[C@@H]2CC[C@@H](C)[C@@](O)(O2)C(=O)C(=O)N2CCCC[C@H]2C(=O)O[C@H]([C@H](C)C[C@@H]2CC[C@@H](OC(=O)C(C)(CO)CO)[C@H](OC)C2)CC(=O)[C@H](C)/C=C(\C)[C@@H](O)[C@@H](OC)C(=O)[C@H](C)C[C@H](C)/C=C/C=C/C=C/1C` [Temsirolimus, 42-[3-Hydroxy-2-(hydroxymethyl)-2-methylpropanoate]-rapamycin], the IC50 was less than 0.03 µM.
Consider `COc1cc2c(Nc3ccc(Br)cc3F)ncnc2cc1OCC1CCN(C)CC1` [Vandetanib], for which the IC50 stood at 6.2 ± 0.95 µM.

The IC50 is the concentration that inhibits the measured activity by half.
